Assay results reported in US10188733B2 (priority 2010, dated 2019).
Read-outs that look alike come from different tables or passages of the source.

Tested on: CD169+ lymph node macrophages

Substance | depletion of CD169+ lymph node macrophages (carrageenan 2 mg every other day from day -5, or dextran sulfate 1 mg single dose day -5, footpad (FIG. 9)) | depletion of CD169+ lymph node macrophages (mouse, in vivo)
carrageenan | local depletion | –
dextran sulfate | – | local depletion
